The list shows a part of the results. At the low end of the ranking the order means little.

The target of this experiment is GST-SBP-SLBP (stem-loop binding protein) (UniProt Q14493). Put plainly: targeted RNA Bind-n-Seq.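 Further: DESeq read counts versus GST-SBP nonspecific binding control pulldown.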 The settings on record: RBNS binding buffer: 25 mM Tris pH 7.5, 150 mM KCl, 3 mM MgCl2, 0.1% Tween, 0.5 mg/mL BSA, 1 mM DTT; 27 nM protein, 750 pM RNA pool; temperature not stated; high values mean tight binding.
In the case of “GGUCACGUCUCAAUCAACUCUUUCUCAGGAGUUUUCUCCUGUUUUGUCAACAGCUCGCAGUCAAG”, the binding signal (log2 fold change) came out at 0.122.
Then “GGUCACGUCUCAAUCAACUCAUCUUCCAGGGAAACCCCUGGCUAUCUCAACAGCUCGCAGUCAAG”, with -0.223; and “GGUCACGUCUCAAUCAACUCUUCCUCAGGAGUUUUCUCCUGCUAACUCAACAGCUCGCAGUCAAG”, with 0.021; and “GGUCACGUCUCAAUCAACUCAAUAGAGGGGGGGAAAACCCCUUUACCCUCGUCCUCAACAGCUCGCAGUCAAG”, with 0.0707.
Then “GGUCACGUCUCAAUCAACUCUAUUUCCAGGGAAAACCCUGGCUAUCUCAACAGCUCGCAGUCAAG”, with 0.0627.
On to “GGUCACGUCUCAAUCAACUCAAAAGAGGGGGGGAAAACCCCUUUGCCCUCGAAUUCAACAGCUCGCAGUCAAG”, for which the binding signal (log2 fold change) is -0.215.
The value for “GGUCACGUCUCAAUCAACUCAAGUCCCAGGGAAAUCCCUGGCAAUCUCAACAGCUCGCAGUCAAG” was -0.0955; that for “GGUCACGUCUCAAUCAACUCUUUUUCAGGAGUUUCCUCCUGUAAUCUCAACAGCUCGCAGUCAAG” was -0.0075; that for “GGUCACGUCUCAAUCAACUCAUUCCCCAGGGAAAGCCCUGGUAAACUCAACAGCUCGCAGUCAAG” was 0.148.
Then “GGUCACGUCUCAAUCAACUCUUCCUCCAGGGAAAACCCUGGUUAUUUCAACAGCUCGCAGUCAAG”, with 0.0637; and “GGUCACGUCUCAAUCAACUCUUAAGAGGGGGGGAAAACCCCUUUGCCCUCACCUUCAACAGCUCGCAGUCAAG”, with -0.104; and “GGUCACGUCUCAAUCAACUCAUUCCCAGGAGUUUCCUCCUGCAAUCUCAACAGCUCGCAGUCAAG”, with 0.161.
Regarding “GGUCACGUCUCAAUCAACUCAUUCCCCAGGGAAACCCCUGGUUUUUUCAACAGCUCGCAGUCAAG”, the binding signal (log2 fold change) was -0.445.
The value for “GGUCACGUCUCAAUCAACUCUAUCCCCAGGGAAAGCCCUGGUUUUUUCAACAGCUCGCAGUCAAG” was -0.149; that for “GGUCACGUCUCAAUCAACUCUACUUCCAGGGAAAUCCCUGGCUAUUUCAACAGCUCGCAGUCAAG” was 0.082.
Then “GGUCACGUCUCAAUCAACUCAUCCUCCAGGGAAACCCCUGGUAUUCUCAACAGCUCGCAGUCAAG”, with -0.155; and “GGUCACGUCUCAAUCAACUCACACGAGGGGGGGAAAACCCCUUUACCCUCAUCAUCAACAGCUCGCAGUCAAG”, with 0.171; and “GGUCACGUCUCAAUCAACUCUACUCCCAGGGAAAGCCCUGGUAUUCUCAACAGCUCGCAGUCAAG”, with -0.0814.
The value for “GGUCACGUCUCAAUCAACUCAUUCCCCAGGGAAAGCCCUGGUUAUUUCAACAGCUCGCAGUCAAG” was -0.125; that for “GGUCACGUCUCAAUCAACUCUAUAGAGGGGGGGAAAACCCCUUUACCCUCACCGUCAACAGCUCGCAGUCAAG” was -0.417.
As to “GGUCACGUCUCAAUCAACUCUAUUCCAGGAGUUUACUCCUGUAUUUUCAACAGCUCGCAGUCAAG”, the binding signal (log2 fold change) was 0.00878.
The value for “GGUCACGUCUCAAUCAACUCAUAAGAGGGGGGGAAAACCCCUUUACCCUCAAAAUCAACAGCUCGCAGUCAAG” was 0.218; that for “GGUCACGUCUCAAUCAACUCUACUCCCAGGGAAAACCCUGGCAAUUUCAACAGCUCGCAGUCAAG” was 0.282.
“GGUCACGUCUCAAUCAACUCUAUCUCCAGGGAAAUCCCUGGCUUACUCAACAGCUCGCAGUCAAG”: the binding signal (log2 fold change) is -0.0569.
Then “GGUCACGUCUCAAUCAACUCUUCCUCCAGGGAAAACCCUGGUUAACUCAACAGCUCGCAGUCAAG”, with -0.0777.
The value for “GGUCACGUCUCAAUCAACUCAUCGCCCAGGGAAAGCCCUGGUUAUUUCAACAGCUCGCAGUCAAG” was -0.153.
As to “GGUCACGUCUCAAUCAACUCCUAGGAGGGGGGGAAAACCCCUUUACCCUCAAAAUCAACAGCUCGCAGUCAAG”, the binding signal (log2 fold change) is -0.0793.
As to “GGUCACGUCUCAAUCAACUCUUCUUCCAGGGAAAGCCCUGGCAAAUUCAACAGCUCGCAGUCAAG”, the binding signal (log2 fold change) is -0.0143.
Then “GGUCACGUCUCAAUCAACUCAUUAGAGGGGGGGAAAACCCCUUUACCCUCAACCUCAACAGCUCGCAGUCAAG”, with -0.32; and “GGUCACGUCUCAAUCAACUCAUCCCCAGGAGUUUCCUCCUGUUAACUCAACAGCUCGCAGUCAAG”, with 0.118; and “GGUCACGUCUCAAUCAACUCAUUUCCCAGGGAAAUCCCUGGUUAUUUCAACAGCUCGCAGUCAAG”, with -0.12.
The value for “GGUCACGUCUCAAUCAACUCUACUUCCAGGGAAAGCCCUGGUAUUUUCAACAGCUCGCAGUCAAG” was 0.0217; that for “GGUCACGUCUCAAUCAACUCCUCGGAGGGGGGGAAAACCCCUUUACCCUCACUUUCAACAGCUCGCAGUCAAG” was -0.635.
In the case of “GGUCACGUCUCAAUCAACUCUAUUCCAGGAGUUUUCUCCUGUUUUCUCAACAGCUCGCAGUCAAG”, the binding signal (log2 fold change) was -0.0898.
Then “GGUCACGUCUCAAUCAACUCUUCCUCAGGAGUUUCCUCCUGUAUUCUCAACAGCUCGCAGUCAAG”, with 0.19; and “GGUCACGUCUCAAUCAACUCUUCUUCCAGGGAAAGCCCUGGUAAUGUCAACAGCUCGCAGUCAAG”, with 0.119.
Then “GGUCACGUCUCAAUCAACUCUUUCCCCAGGGAAAGCCCUGGUUAUCUCAACAGCUCGCAGUCAAG”, with 0.143; and “GGUCACGUCUCAAUCAACUCUUUUUCCAGGGAAAGCCCUGGUAUAUUCAACAGCUCGCAGUCAAG”, with 0.123.
For “GGUCACGUCUCAAUCAACUCAUCCCCCAGGGAAAGCCCUGGUUAUCUCAACAGCUCGCAGUCAAG”, the binding signal (log2 fold change) was -0.0687.
The value for “GGUCACGUCUCAAUCAACUCAUCUCCAGGAGUUUCCUCCUGUUUUCUCAACAGCUCGCAGUCAAG” was -0.0127.
Then “GGUCACGUCUCAAUCAACUCAUCUUCCAGGGAAAACCCUGGCUAUUUCAACAGCUCGCAGUCAAG”, with -0.193; and “GGUCACGUCUCAAUCAACUCAUCUUCAGGAGUUUUCUCCUGCUUACUCAACAGCUCGCAGUCAAG”, with 0.0427.
Then “GGUCACGUCUCAAUCAACUCAAUCUCAGGAGUUUCCUCCUGCUAACUCAACAGCUCGCAGUCAAG”, with 0.17.
In the case of “GGUCACGUCUCAAUCAACUCUAUUUCCAGGGAAACCCCUGGCAUGUUCAACAGCUCGCAGUCAAG”, the binding signal (log2 fold change) is 0.0113.
The value for “GGUCACGUCUCAAUCAACUCAAUCUCCAGGGAAAUCCCUGGUAUUUUCAACAGCUCGCAGUCAAG” was -0.0307; that for “GGUCACGUCUCAAUCAACUCUUCGCCCAGGGAAAUCCCUGGUUUUCUCAACAGCUCGCAGUCAAG” was 0.172.
The value for “GGUCACGUCUCAAUCAACUCUUUCCCCAGGGAAAUCCCUGGUUAUGUCAACAGCUCGCAGUCAAG” was 0.0174.
